ChEMBL document CHEMBL4888484, “Replenishing the malaria drug discovery pipeline: Screening and hit evaluation of the MMV Hit Generation Library 1 (HGL1) against asexual blood stage Plasmodium falciparum ,using a nano luciferase reporter read-out” (2022)
The campaign covered roughly 150,000 compounds. About 540 (0.36%) showed an effect of 50% or more. Some of the results follow.

System: Plasmodium falciparum
Assay: Primary screen in NF54 nanoGlo assay, in single point, at 2uM, 72h; a lower Z score goes with more inhibition
Type: functional, Erythrocyte
Settings: timepoint 72 hour

SMILES	% Inhibition [%]	Z score
C[C@@H](C(=O)N1CC(=O)Nc2ccccc21)N(C)CCc1nccs1	-4	0.81
Cc1ccc(C)c(C(C)NC(=O)c2cc(C(=O)NC(C)c3cc(C)ccc3C)cc(C(=O)NC(C)c3cc(C)ccc3C)c2)c1 (stereo not drawn)	0	0.05
Cc1cccc([C@H]2CCCN(C(=O)c3ccsc3)C2)c1	-5	0.94
CC1CC2CCCCC2N1C(=O)c1cc[nH]c(=O)c1 (stereo not drawn)	-9	1.43
CC(C)N(C)C(=O)[C@H]1CC(=O)N(C(C)C)C1	-5	0.63
COc1ccccc1-c1nc2ccc(C)cn2c1NC(=O)CCC1CCCC1	-3	0.42
Cc1nc(NC(=O)c2cc(C3CC3)on2)sc1C(=O)N(C)C	-8	1.57
O=c1[nH]nc(CCNc2ccc(Cl)cn2)[nH]1	4	-0.44
CN(C(=O)c1ccc(S(=O)(=O)NC2CC2)o1)C1CCCCC1	1	-0.24
C[C@]1(CS(=O)(=O)NCCc2cnoc2)CC1(Cl)Cl	-6	0.86
O=C(Cc1cccs1)Nc1ccc(-c2nnc[nH]2)cc1	1	-0.11
Cc1c(NC(=O)Nc2cnc3c(c2)CCCC3)cnn1C	10	-1.29
COc1ccc2nc(N3CC(C(=O)NCCc4cccs4)C3)sc2c1	-3	0.42
Cc1ccc(Cl)cc1N1CCN(C(=O)c2cc3c(C)nc4ccccc4c3o2)CC1	-7	1.02
Cc1ccc(CNC(=O)c2ccc3c(c2)CNCCO3)cc1	11	-2
O=C(c1cc(-c2ccccc2Cl)nc2ccccc12)N1CCN(c2ncccn2)CC1	-3	0.44
CC(=O)NC(C)(C)C(N)=NOCc1c(C)cc(C)cc1C	-13	1.71
Cc1nccc(NC(=O)N2Cc3cc(Br)ccc3C[C@@H]2C)n1	25	-3.16
Cc1ccc(C(=O)NCc2ccco2)n1C	-14	1.81
COc1cc(C)c(-c2c(-c3ccccc3)ncn2Cc2ncc[nH]2)cc1C	-2	0.27
CN(Cc1ncc[nH]1)C(=O)c1coc(CN2CCc3ccccc3C2)n1	15	-1.92
CCCNC(=O)CS(=O)(=O)Cc1cccc(Br)c1C	40	-5.73
Cc1nn(CC(=O)N[C@H](c2cnn(C)c2)C(C)(C)C)c2ncccc12	-14	2.25
COc1ccc(-c2ccc(C)cc2-n2cccn2)nn1	-16	1.93
Cc1c(CN(C)CCN(C)C2CCCC2)cnn1C	-25	2.18
CCOC(=O)c1[nH]c(C2CCN(Cc3nocc3C)CC2)nc1C	-15	2.3
COc1ccc(N2CCN(C(=O)CN3C(=O)CCn4nc(C)cc43)CC2)cc1	-11	1.1

SMILES	% Inhibition [%]	Z score
Cc1cnc(C(=O)N2CCC[C@H]2c2ccsc2)cn1	-5	0.49
Cc1c(C(=O)N(C2CC2)[C@@H](C)C(=O)O)cccc1-c1ccccn1	-3	0.37
COc1ccc2c(c1F)CC[C@@H]2NCc1ccc(CCN)cc1	10	-0.91
COC1(c2nc(CCn3ccc4ccccc43)no2)CCC(C(F)F)CC1 (stereo not drawn)	-10	1.17
O=C(NCc1ccccc1)N1CC[C@H](c2ccsc2)C1	-21	2.46
Cc1nc(CN2CCC[C@H](Cn3cncn3)C2)oc1C	-7	1.04
O=C(Nc1ccc(N2CCN(C(=O)c3cccc(F)c3)CC2)nc1)C1CCCCC1	2	-0.25
CN(C(=O)c1cc(C(C)(C)C)on1)[C@@H]1COC[C@H]1O	-8	1.49
O=C(Nc1nccn(-c2ccc(Br)cc2)c1=O)c1ccccn1	1	-0.15
CC[C@@H](CC#N)NC(=O)CC1(CNC(=O)OC(C)(C)C)CC1	-11	1.16
CC[C@H](C)NC(=O)CN1CN(c2ccccc2)C2(CCN(C(=O)Nc3cccc(Cl)c3Cl)CC2)C1=O	-10	1.84
COc1ccc(S(=O)(=O)NC[C@@](O)(c2ccccc2)C2CCOCC2)cc1C(N)=O	-7	1.3
O=C(COC(=O)c1ccccc1-c1nc2ccccc2s1)NCc1ccc2c(c1)OCO2	-10	1.45
O=c1cc2c(nn1CC1CCN(c3ccc4nnc(C(F)(F)F)n4n3)CC1)CCC2	-7	0.99
C[C@]1(CO)CCCN(c2ncc(S(=O)(=O)NCCO)cc2C(F)(F)F)C1	-5	0.93
CCc1onc(C)c1NC(=O)[C@H]1CCc2[nH]nc(C(F)(F)F)c2C1	-10	1.21
Cc1cc(NC(=O)CN(C)[C@H]2CCCN(Cc3noc(C)n3)C2)on1	-9	0.98
O=C(Cc1cccc(F)c1)N1C[C@H]2CC[C@@H](C1)N(Cc1ccccc1)C2=O	-6	0.72
CCc1ccc(CS(=O)(=O)N2CCC[C@H](c3nc(C)cs3)C2)cc1	12	-1.39
COC(=O)C(C)(C)NCC(=O)N[C@@H](C)C1CC1	-9	1.15
CCCn1nccc1S(=O)(=O)N(C)C[C@H]1CCN(C)C1	-7	1.09
Cn1cncc1CN1CCOc2ccccc2[C@@H]1C(=O)O	-6	0.87
O=C(c1ccc(COc2cc(Cl)ccc2Cl)o1)N1CCCCCC1	-11	1.77
COCCn1cc(NC(=O)c2nc(C)n(-c3ccccc3Cl)n2)ccc1=O	-4	0.52
COC(=O)c1ccc(CN2CC[C@@H](N3CCC(Cc4ccccc4)CC3)CCC2=O)cc1	-7	1.31
O=C(c1ccc2nccnc2c1)N1CCn2c(cnc2C(F)(F)F)C1	7	-0.97
Cc1ncc(CNC(=O)Nc2cnn(CC(C)C)c2)s1	-4	0.56
